The supplement of paper PMC3334620
Over roughly 33,000 sequences, “E-score (-0.5 to 0.5)” has its median near -0.017; the highest 2% begin near 0.3. Some of the results follow.

Target: T1, Sut1 (UniProt P53032)
T1 sequence: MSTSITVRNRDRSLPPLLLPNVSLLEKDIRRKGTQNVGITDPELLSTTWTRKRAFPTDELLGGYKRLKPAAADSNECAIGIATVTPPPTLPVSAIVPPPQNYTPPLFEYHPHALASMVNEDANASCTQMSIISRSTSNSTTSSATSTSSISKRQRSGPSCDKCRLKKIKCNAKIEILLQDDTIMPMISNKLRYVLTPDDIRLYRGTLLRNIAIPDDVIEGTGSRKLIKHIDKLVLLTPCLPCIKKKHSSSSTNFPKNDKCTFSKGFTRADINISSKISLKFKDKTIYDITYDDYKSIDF
Assay: PBM E-score (8-mer binding enrichment) (E-score (-0.5 to 0.5)); higher = stronger / more preferred TF binding; most listed sequences are background and not binding sites
Conditions: protein concentration: 200 nM; construct: GST-full length
Method in brief: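 Yeast transcription factors, full-length or as DNA-binding domains, were expressed with a GST tag using PURExpress in vitro transcription/translation. At about 100-200 nM they were applied to universal all-10-mer Agilent arrays, double-stranded by primer extension on fresh or once-stripped slides. Fluorescent anti-GST detected bound protein, and masliner normalised the scans. E-scores for ungapped eight-base words, pooled with reverse complements, came from the Universal PBM Analysis Suite.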

Sequence	PBM E-score
CTTAAATA	0.0743
CGACCCTA	-0.00567
AGTCGTAT	0.0684
GGTGACCA	-0.0976
AATTGCCG	0.083
ACTCCCCG	0.196
GGCGGACA	0.0225
GCCAGTTA	-0.0422
CTCTAGGC	-0.147
CCGGACGG	0.0807
CCCTGCTC	-0.0773
CTGCGTGC	-0.104
GGAGACCA	-0.0203
CATATTCA	0.168
AGGGTGAA	-0.00902
CGGCATGA	0.0325
CTTTACCC	-0.0495
CGCCCTTA	-0.194
CACTGATC	-0.064
CCTGAAAC	0.0309
AGGCGCAC	-0.0886
CGAGTACC	-0.112

Sequence	PBM E-score
AATGATAC	0.253
CACTTCAA	0.0556
TTCTGAAA	0.155
ACAACCGG	0.101
GACGTCTA	0.0191
CATTTGCC	-0.206
ATACTGTA	0.14
AAACAACT	0.15
AAAGAGGA	-0.175
GTATATCA	0.153
GCCGAGCA	-0.305
CACCTCCC	-0.382
AAATTAGC	0.102
CGGTCAGC	-0.2
GGAAGGGA	-0.0551
ACGGCCGC	-0.139
GGAGGTTA	-0.0861
AGAAGGGA	-0.302
CATATCCC	0.0171
CGACTCAC	0.0119
AGGGGAAT	-0.0804
GGAAGCAC	0.115

Sequence	PBM E-score
CTTAGAGA	-0.0381
CTAGAGAA	-0.00546
TATTGCAA	0.23
CGCAAAAG	-0.0335
CGTACCTA	-0.151
CAAGGCCC	-0.132
AGAATCGG	0.0691
ACTATATG	0.196
TTAGTGAA	0.26
CAAAAGAC	-0.072
GATGCCCA	0.0574
GAGGATGC	-0.138
AAGCAAGG	-0.116
AACCTCAG	-0.0472
TACCAGGA	0.1
TAAAGTCA	0.0489
ATGTAGCA	0.0408
CGTGATCC	-0.194
CTGGCGCC	-0.192
CACCCTAC	-0.161
CCCTAAAG	-0.173
CGGGGAGA	-0.192

Sequence	PBM E-score
CTGAGCTC	0.119
CTCGCTCA	-0.131
GCATATAA	0.0702
CACATTGC	-0.0455
ATCGGATA	0.288
CTGCCTTA	-0.168
ATATCTGG	-0.0354
ACTACGAC	0.0112
CTTCATTC	-0.139
CTCCGCAG	0.364
CGTAGAAG	0.143
GGTTTGAC	-0.0647
ATACGTGG	0.0687
TAAATCCA	0.123
CATACGAA	0.0829
CTTCCCGC	-0.171
GTCCCCTA	-0.107
AGTGAACT	-0.0232
GATAAGGC	-0.00083
AAAAGGCG	-0.0353
